The results in this text go back to ChEMBL document CHEMBL1201862, “PubChem BioAssay data set” (2004).

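Interpolation was linear, between the two tested concentrations surrounding the appropriate level; five concentrations were tested over 48 hours in 96-well plates. GI50: concentration for 50% inhibition of growth.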 The source made the active and inactive calls. Cut-off read from the data, not from the text of the source: active = GI50 up to about 1.1 µM and inactive = higher.

For the experiment, the system named is NCI-H322M. Put plainly: DTP human tumour cell line panel, 48 h.
As a reminder, the GI50 is the concentration at which growth is held to half of that of the control. `CC(Nc1cc(=O)n(C)c(=O)[nH]1)c1ccccc1` (stereo unspecified): the GI50 was inactive: > 100 µM.

`CCOC(=O)c1cc([N+](=O)[O-])cc([N+](=O)[O-])c1Sc1[nH]cnc2ncnc1-2`: the GI50 was inactive: 5.86 µM.

On to `CCC1CN2CCc3cc(OC)c(OC)cc3C2CC1CC1c2cc(OC)c(OC)cc2CCN1C(=O)C(Cc1c[nH]c2ccccc12)NC(=O)OC(C)(C)C` (stereo unspecified), for which the GI50 was inactive: 5.83 µM.

With `O=c1oc2ccccc2cc1-c1ccc([N+](=O)[O-])cc1`, the GI50 was inactive: > 100 µM.

`COc1c(C)c2nc3ccccc3nc2c2c(O)ccnc12`: the GI50 is inactive: > 100 µM.

For the compound `O=CN/C=C/c1ccccc1`, the GI50 was inactive: > 100 µM.

For `CN(C)CCOc1ccc(-c2c(Oc3ccccc3)c(=O)oc3ccccc23)cc1`, the GI50 is inactive: 5.87 µM.

Take `COc1cc(C2c3cc4c(cc3OC(NNC(N)=O)C2C)OCO4)cc(OC)c1O` (stereo unspecified): the GI50 was inactive: 5.22 µM.

Regarding `O=C(O)c1oc2cccc3c2c1CCC3`, the GI50 was inactive: > 100 µM.

In the case of `Cc1cc(Cl)ccc1NC(=O)CCCC(=O)C1CCCC1=O` (stereo unspecified), the GI50 was inactive: > 100 µM.

As for `O=C(Nc1nc2c(ncn2C2OC(CO)C(O)C2O)c(=O)[nH]1)c1ccccc1` (stereo unspecified), the GI50 is inactive: > 100 µM.

Consider `Cc1nn(C(=O)Cc2ccccc2)c2c1C(c1ccc(O)cc1O)SC(=N)N2` (stereo unspecified), for which the GI50 was inactive: > 100 µM.

Regarding `CCOC(=O)C1=C(Nc2ccc(Cl)cc2Cl)OC/C1=N\NS(=O)(=O)c1ccc(C)cc1`, the GI50 was inactive: > 100 µM.

Take `CCOC(=O)NC(Nc1ccc(F)cc1)(C(=O)OCC)C(F)(F)F` (stereo unspecified): the GI50 was inactive: > 100 µM.

In the case of `CCOC(=O)C1N(S(=O)(=O)c2ccc(C)cc2)CCC12c1ccccc1N(C(C)=O)C2c1ccc(OC)c(OC)c1` (stereo unspecified), the GI50 is inactive: > 100 µM.

For the compound `CSc1ncnc2c1cnn2Cc1cn(CCCCO)nn1`, the GI50 was inactive: > 100 µM.

In the case of `CSc1nc2nc(C)c(C)nc2c(=O)[nH]1`, the GI50 was inactive: 51.3 µM.

On to `COc1ccccc1NCc1nnc(CCCCCCCCc2nnc(CNc3ccccc3OC)o2)o1`, for which the GI50 is inactive: > 100 µM.

Take `CCc1cccc(C(C)C)c1C1C(=O)C(=O)N(c2nc3ccccc3s2)C(=O)C1=O`: the GI50 was inactive: > 100 µM.

On to `COc1ccc(N2C(=O)C(C)SC2c2cc3cc(Br)ccc3nc2Cl)cc1` (stereo unspecified), for which the GI50 is inactive: 33.4 µM.

As to `COc1ccc(C[C@H]2NC(=O)/C=C/C[C@@H]([C@H](C)[C@H]3O[C@@H]3c3ccccc3)OC(=O)[C@H](CC(C)C)OC(=O)[C@H](C)CNC2=O)cc1`, the GI50 was active: 2.62e-05 µM.

For `Oc1ccc2occ3c2c1CCC3`, the GI50 was inactive: > 100 µM.

Regarding `CC(=O)OC1C[C@@H](C)C2(CC(c3ccoc3)OC2=O)C2CCC(O)C3(CO3)C12CO` (stereo partly specified), the GI50 is inactive: > 100 µM.

With `Cc1ccc(S(=O)(=O)n2c3ccc(Br)cc3c3nc4ccccc4nc32)cc1`, the GI50 is inactive: > 100 µM.

As for `O=C(CNc1cccc(Cl)c1)Nn1c(-c2ccccc2)nc2ccccc2c1=O`, the GI50 was inactive: 15.4 µM.

With `N/C(=N/c1ccc(O)cc1)S(=O)(=O)O`, the GI50 was inactive: > 100 µM.

For `CC1NC(=O)C2Cc3ccc(O)c(c3)Oc3ccc(cc3)C(O)C(C(=O)N2C)N(C)C(=O)C(C)NC(=O)C(Cc2ccc(O)cc2)N(C)C(=O)C(C)NC1=O` (stereo unspecified), the GI50 is inactive: > 100 µM.

Take `CSc1ccc(NC(=S)NN(C)C)cc1`: the GI50 is inactive: > 10 µM.

For `CCOC(=O)/C(=C\NCC(O)c1ccccc1)c1nc2ccccc2[nH]1` (stereo unspecified), the GI50 is inactive: 30.3 µM.

In the case of `O=c1nc(-c2ccccc2)c2c3c(cccn13)CCC2`, the GI50 is inactive: > 100 µM.

For `c1cc2c(s1)-c1sccc1C21OCCO1`, the GI50 is inactive: > 100 µM.

Regarding `Cc1cc(O)c2c(c1O)C(=O)C1=C(C2=O)C(=O)C2C(O)C1C1C(O)CC(O)=C3C(=O)c4c(O)cc(C)c(O)c4C(=O)C321` (stereo unspecified), the GI50 was inactive: 1.56 µM.

In the case of `S=c1c2nc[nH]c2ncn1CCSC1=NC=NC2=NC=NC21` (stereo unspecified), the GI50 is inactive: > 100 µM.

As for `COC1=C2CC(C)CC(OC)C(O)C(C)/C=C(\C)C(OC(N)=O)C(OC)/C=C\C=C(/C)C(=O)NC(=C(/C=N/N3CCCCC3)C1=O)C2=O` (stereo unspecified), the GI50 is inactive: 33.3 µM.

As to `COc1cc(OC)cc(N(C)Cc2cnc3nc(N)nc(N)c3c2C)c1`, the GI50 was inactive: 5.55 µM.

Consider `CCN(CC)C(=S)SS(=O)(=O)c1ccc(F)cc1`, for which the GI50 was inactive: > 100 µM.

As for `O/N=C(\C=N\O)c1ccc2c(c1)Sc1ccccc1O2`, the GI50 was inactive: 35.2 µM.

As for `CC(C)=CCC[C@@H](C)C1=C(O)C(O)C(C)=C2N=C(c3ccccc3)C(=O)OC21` (stereo partly specified), the GI50 was active: 1.08 µM.

Regarding `CCOC(=O)c1cn2c(n1)sc1cc(Cl)cc(Cl)c12`, the GI50 is inactive: > 100 µM.

On to `C=CCOc1ccc(C(/N=N\c2ccc(Cl)cc2)=N/NC(=O)c2ccccc2)cc1OC`, for which the GI50 is inactive: > 100 µM.

Turning to `Brc1ccc(/N=c2/nc3ccccn3n3nc(-c4ccccc4)cc23)cc1`, the GI50 is inactive: 30.1 µM.

With `CC(=O)/C=C1/c2ccccc2N(C(C)=O)C1O` (stereo unspecified), the GI50 is inactive: > 100 µM.

With `CCC1CN(C(=O)c2ccccc2)C(Cc2c[nH]c3ccccc23)C(=O)C1CC(=O)OC` (stereo unspecified), the GI50 was inactive: 54.3 µM.

Regarding `CCCCCCCCC[C@@H]1CC(=O)OCC2OC(O[C@H](CCCCCCCCC)CC(=O)OCC3OC(O[C@H](CCCCCCCCC)CC(=O)OCC4OC(O1)C(O)C(O)C4O)C(O)C(O)C3O)C(O)C(O)C2O` (stereo partly specified), the GI50 is inactive: 10.9 µM.

`O=C(NO)c1cccc(OCc2ccc(Br)cc2)c1`: the GI50 is inactive: 4.23 µM.

`CCCCCCCCCCCCCCCCCc1cccc(OCOCCOC)c1CO`: the GI50 was inactive: > 100 µM.

As for `O=[N+]([O-])c1cc(Cl)cnc1Br`, the GI50 was inactive: 10.6 µM.

As to `COc1nc(=O)cc(N)n1C1OC(CO)C(O)C1O` (stereo unspecified), the GI50 is inactive: > 100 µM.

On to `Nc1c(-c2ccccc2)c2ccc([N+](=O)[O-])cc2c(=O)n1-c1cccc(C(=O)O)c1`, for which the GI50 is inactive: > 100 µM.

For the compound `CCOc1ccc(N/C(=C(/C(Cl)=C(/Cl)NCCO)[N+](=O)[O-])n2nnc3ccccc32)cc1`, the GI50 is inactive: 49.2 µM.

For the compound `C/C(=N\N=C(N)N)c1c(C(=O)OCCCCCCOC(=O)c2nc3sccn3c2/C(C)=N/N=C(N)N)nc2sccn12`, the GI50 was inactive: > 100 µM.

Consider `Cc1cccc(Nc2cn(CCOc3ccccc3)c(=O)[nH]c2=O)c1`, for which the GI50 is inactive: > 100 µM.

For the compound `C/C=C1/CN2CCC34c5ccccc5N(C)C23C2CC1C4(C(=O)OC)C(O)O2` (stereo unspecified), the GI50 is inactive: > 100 µM.

Regarding `NC(=S)N1N=C2CCCCCC[C@@H]2[C@H]1c1ccccc1`, the GI50 is inactive: 42.6 µM.

As for `Cc1ccc2c(c1)Nc1ccccc1P2(=O)O`, the GI50 is inactive: > 100 µM.

Consider `COC1C(=[N+]=[N-])C(=O)NC(=O)N1C1OC(COC(c2ccccc2)(c2ccccc2)c2ccccc2)C(O)C1O` (stereo unspecified), for which the GI50 was inactive: 16.7 µM.

On to `O=C(NC(=O)c1ccccc1[N+](=O)[O-])Nc1ccc(Oc2ncc(Br)cn2)c(Cl)c1`, for which the GI50 is active: 0.0357 µM.

In the case of `C/C1=C\CC[C@@]2(C)O[C@@H]2C[C@@H]2[C@H](C/C(C)=C/CC1)OC(=O)[C@]21CO1`, the GI50 was inactive: > 100 µM.

Consider `COC(=O)[C@H](Cc1ccccc1)NC(=O)N1CCCN(C(=O)N[C@@H](Cc2ccccc2)C(=O)OC)CCCN(C(=O)N[C@@H](Cc2ccccc2)C(=O)OC)CCC1`, for which the GI50 was inactive: 14.9 µM.

Regarding `COC1(C2c3ccccc3CCN2C(=O)OC(C)(C)C)C(=O)C(c2ccccc2)=C1N(C)C` (stereo unspecified), the GI50 was inactive: 31.8 µM.

Take `Oc1ccc(O)c(CNc2ccccc2)c1`: the GI50 was inactive: 35.6 µM.

`Cc1cc2cc(Cl)ccc2nc1C(=O)c1ccccc1`: the GI50 is inactive: > 100 µM.

Consider `C/C=C/CP(=O)(c1ccccc1)c1ccccc1`, for which the GI50 was inactive: > 100 µM.

Turning to `CC(NS(C)(=O)=O)c1ccccc1` (stereo unspecified), the GI50 was inactive: > 100 µM.

`NC1=C(N2CCOCC2)C(=O)NC2=N/C(=C\c3ccccc3O)C(=O)N21`: the GI50 was inactive: > 100 µM.

For `C=CC[C@]1(/C=N/O)CN(S(=O)(=O)CC[Si](C)(C)C)C[C@H]2CC=CC[C@H]21`, the GI50 was inactive: 26.1 µM.

As for `CC(C)(CN1CCCCC1)C(=O)CC(SCCS(=O)(=O)O)c1ccc(Cl)cc1` (stereo unspecified), the GI50 is inactive: 8.99 µM.

For the compound `C=CC1(C)OC2(CCN(C(=O)OCC)CC2)OC1C` (stereo unspecified), the GI50 is inactive: > 100 µM.

In the case of `N=C(c1ccccc1)N(O)C1CCCCC1`, the GI50 was inactive: > 100 µM.

With `O=C1c2cc3ncsc3cc2C(=O)c2c(O)ccc(O)c21`, the GI50 is inactive: > 100 µM.

Regarding `O=c1[nH]c2ccccc2cc1C(Cl)=C(Cl)Cl`, the GI50 was inactive: > 100 µM.

With `c1c[nH]c(C23C4C5C6C4C2C6C53)n1` (stereo unspecified), the GI50 is inactive: > 100 µM.

In the case of `COc1cc(C2S/C(=C/c3ccccc3)C(=O)N2Cc2ccccc2)cc(OC)c1OC` (stereo unspecified), the GI50 was inactive: > 100 µM.

As for `O=C(Cc1nc2ccccc2o1)C(=O)Nc1ccccc1C(F)(F)F`, the GI50 is inactive: > 100 µM.

As for `O=C(O)CCNCCCNCCC(=O)O`, the GI50 is inactive: > 100 µM.

Take `CC(=O)OCC1OC(n2c(S)nc(-c3ccccc3)c(C#N)c2=O)C(OC(C)=O)C(OC(C)=O)C1OC(C)=O` (stereo unspecified): the GI50 was inactive: > 100 µM.

For `O=[N+]([O-])c1ccc(/N=N/c2c(O)ccc3cc(S(=O)(=O)O)cc(S(=O)(=O)O)c23)cc1`, the GI50 was inactive: > 100 µM.

Turning to `CC(C)(Oc1ccc(C2C[C@H]2Cl)cc1)C(=O)O` (stereo partly specified), the GI50 is inactive: > 100 µM.

As to `CC(=O)OC1CC2C(C)(C)C(=O)C=C[C@]2(C)C2CCC3(C)C(=CC(=O)C3c3ccoc3)[C@]12C` (stereo partly specified), the GI50 was inactive: 15.3 µM.

Turning to `O=C(O)c1cc2c(ncc3c(=O)n(-c4ccccc4)[nH]c32)s1`, the GI50 was inactive: > 100 µM.

Take `CCCCOc1ccc(S(=O)(=O)N/C(=N\O)Nc2ccc(Cl)cc2)cc1`: the GI50 was inactive: 15.9 µM.
